Results taken from the supplement of paper PMC10300432.

B1: C5310 (protein)
chain 1: EVQLVESGGGLVKPGGSLRLSCAASGFTFSSYTMNWVRQAPGKGLEWVSSINSLSTYIVYADSLKGRFTISRDNAKNSLYLQMNSLRAEDTALYYCARRRGGDDYVRFFDLWGRGTLVTVSS
chain 2: DIVMTQTPLSLPVTPGEPASISCRSSQSLLDSDDGNTFLDWYVQKPGQSPQLLIYTLSYRASGVPDRFSGSGSGTDFTLTISRVEAEDVGVYYCMQRIEFPLTFGQGTRLEIK
B2: C5315 (protein)
chain 1: QLQLQESGPGLVKPSETLSLTCTVSGDSIGSISYYWGWIRQPPGKGLEWIGSIYYSGTIYLNPSLESRVTISLDTSKNQFSLKLRSVTAADTAVYYCARLPLGDLPDYWGQGTLVTVSS
chain 2: EIVLTQSPGTLSLSPGERATLSCRASQSVSSSYFAWYQQKPGQAPRLLIYGAFTRATGIPDRFSGSGSGTDFTLTISRLEPEDFAVYYCQQYGSSPRALTFGGGTKVEIK
B3: C5053 (protein)
chain 1: QVQLVQSGAEVKKPGSSVKVSCKASGGPFNIHGISWVRQAPGQGPEWMGGIIPITGTANYAQKFKGRVTITADTSTSTAYMELNSLRSEDTAVYYCARDGRFHYGSSGYYYIAFDVWGPGTMVTVSS
chain 2: DIQMTQSPSSLSASVGDRVTITCRASQNITRHLNWYQQKPGKAPQILIYGASNLQVGVPSRFSGSGSWTDFTLTISSLQLEDFATYYCQQSYNAPRTFGQGTKLEIK
B4: C5311 (protein)
chain 1: QVQLVESGGGVVQPGRSLRLSCAASGFTFSRYDMHWVRQAPGEGLEWVAAISFDGDNVYYSDSVKGRFTISRDNSKNTLYLQMSSLKAEDTSLYYCAKVGPSYASGWFEGYYFDYWGQGTLVTVSS
chain 2: DIQMTQSPSSLSASVGDTVTITCRTNQSITKYLNWYQQKTGKAPKLLIYAASSLQSGVPSRFSGSGSGTAFTLTINSLQPADFATYYCQLSYGSPTWTFGQGTKVEIK
B5: C5308 (protein)
chain 1: EVQLVQSGAEVKKPGESLKISCKGSGYRLIDHWIGWVRQMPGKGLDWMGIIYPGDSDSRYSPSFQGQVTFSVDRSTSTAYLQWSSLKVSDTAVYYCARSLDRSPFEPFDMWGQGTVVTVTS
chain 2: EIVLTQSPGTLSLSPGERATLSCRASQSISSTYFAWYQQKPGQAPRLLIYGASSRATGIPDRFSGSGSGTDFTLTISRLEPEDFAVYYCQQYGSPWTFGQGTKVEI
B6: C5307 (protein)
chain 1: QVQLVESGGGVVQPGRSLRLSCAASGFTFSNYDIHWVRQAPGKGLEWVAVISSDGSSKFYADSVKGRFTISRDNSKNTLFLQMNSLRAEDTAVYYCAKDYGDSRLDWFDTWGQGTLVTVSS
chain 2: DIQMTQSPSSLSASVGDRVTITCRASQTISSYLNWYQQKPGKAPKLLIYAASSLHSAVPSRFSGSGSGTDFTLTISGLQPEDFATYYCQQSYSSPPWTFGQGTKVEIK
B7: C5063 (protein)
chain 1: QVQLVESGGGVVQPGRSLRLSCAASGFTFSSYSMHWVRQAPGKGLDWLAVISDDGTMKFYADSVKGRFTISRDNSNNTLHLQMNSLRAEDTAVYYCARDTDTSRVPDLDYWGQGTLVTVSS
chain 2: B6 chain 2 with T28G, S31T, H55Q, A57G, G77S, W97V, K104R, V105L

How the values were obtained:
[1] = target: SARS-CoV-2 Omicron BA.1 spike pseudovirus; experiment: pseudovirus neutralization IC50; higher = weaker neutralization
Experimental: (§1)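 Single-round luciferase reporter pseudovirus mixed with antibody dilutions and put on HT1080-ACE2 clone 14 cells for 48 h; signal relative to no-antibody wells, four-parameter fit.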

[2] = target: SARS-CoV-2 Omicron BA.4/5 spike pseudovirus; experiment: as above
Experimental: as §1

[3] = target: SARS-CoV-2 Wuhan-Hu-1 spike pseudovirus; experiment: as above
Experimental: as §1

[4] = target: SARS-CoV-2 Wuhan-Hu-1 spike receptor-binding domain; experiment: ELISA binding EC50; higher = weaker binding; ELISA of recombinant human antibody on coated antigen, from 10 µg/ml in fourfold dilutions; four-parameter fit.

Row | Binder | pseudovirus neutralization IC50 [1] | pseudovirus neutralization IC50 [2] | pseudovirus neutralization IC50 [3] | ELISA binding EC50 [4]
1 | B1 | > 1 µg/mL | > 1 µg/mL | > 1 µg/mL | 0.00784 µg/mL
2 | B2 | > 1 µg/mL | > 1 µg/mL | 0.0024 µg/mL | 0.00371 µg/mL
3 | B3 | 0.047 µg/mL | > 1 µg/mL | 0.000747 µg/mL | 0.00348 µg/mL
4 | B4 | 0.743 µg/mL | > 1 µg/mL | 0.434 µg/mL | 0.00466 µg/mL
5 | B5 | > 1 µg/mL | > 1 µg/mL | 0.0218 µg/mL | 0.00428 µg/mL
6 | B6 | > 1 µg/mL | 0.957 µg/mL | 0.657 µg/mL | 0.00423 µg/mL
7 | B7 | > 1 µg/mL | > 1 µg/mL | > 1 µg/mL | 0.00581 µg/mL

Changes are numbered by the printed parent chain. Recombinant human monoclonal antibodies (heavy:light variable regions). ELISA EC50 on the named antigen, from 10 µg/ml down; IC50 against spike pseudovirus on HT1080-ACE2 cells, 48 h; lower = stronger. Calls: IC50 above 1,000 ng/ml = non-neutralizing; EC50 above 1,000 ng/ml = non-binder.
